From PubChem BioAssay AID686970 (National Center for Advancing Translational Sciences (NCATS), 2013)
In all, about 360,000 compounds went through this assay and about 6,000 (1.7%) were called active. This list was built around the results that the source calls inconclusive (neither active nor inactive); the mix of calls is not that of the screen. The call rests on the fitted dose curve; in most records, active means well fitted cell-killing curve with a large enough effect; inconclusive means small, poorly fitted or top-dose-only effect, or effect the other way; inactive means flat fitted curve, though single readings scatter. No potency is given beside an inconclusive call; the fits are too rough.
Potency means the concentration at half of the fitted maximal effect; tags describe the fitted curve by direction and shape.

Experiment: qHTS for induction of synthetic lethality in tumor cells producing 2HG: qHTS for the HT-1080-NT fibrosarcoma cell line;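 further: NT is the 2HG producing partner of a matched IDH1 knockdown line; nearly all actives have a fitted effect of over 55% in size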;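 on activity, negative = less viability: 0% = DMSO-treated cells and -100% = media-only wells without cells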
Conditions: HT-1080-NT fibrosarcoma viability, CellTiter-Glo ATP luminescence, 48 h; activity, negative = less viability: at 46.1 µM (top of the series) unless noted
Method in brief: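 Fibrosarcoma NT cells, 750 per well in 5% FBS RPMI, were exposed to compound for 48 hours. Viability: CellTiter-Glo luminescence.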
In the case of `CCCc1nn2c(=O)cc(CSCC(=O)Nc3ccc(C)cc3)nc2s1`, the Potency is reported as “inactive”.
For `CN(c1cccc(NC(=O)c2ccc(Cl)c(S(=O)(=O)Nc3ccccc3)c2)c1)S(C)(=O)=O`, the Potency was inconclusive [cytotoxic, single point].
For `NC(=S)NN=Cc1nccc2c(C(F)(F)C(F)(F)C(F)(F)F)cccc12`, the Potency was inconclusive [cytotoxic, full curve, poor fit].
With `COc1cc(C(=O)NCCC(C)C)ccc1OCc1ccc(Cl)cc1Cl` the Potency was “inactive”.
For `CSc1nc2c(cnn2-c2ccccc2)c(=O)n1N`, the Potency was inconclusive [rising, full curve].
For `Clc1ccc(OCCCNCc2ccccc2)c(Br)c1`, the Potency was inconclusive [cytotoxic, single point].
In the case of `Cc1ccc(S(=O)(=O)N2CCC(C(=O)OCC(=O)N3C(C)CCCC3C)CC2)cc1C` (stereo unspecified), the Potency is reported as “inactive”.
With `Cc1cc(Br)c(OCC(=O)NN)c2c1CCC2` the Potency was inconclusive [cytotoxic, single point].
For `N/C(=N\c1nc(CSc2nc3ccccc3s2)cc(=O)[nH]1)Nc1ccc(F)cc1`, the Potency was inconclusive [cytotoxic, single point].
For `NC(=O)C1(N2CCCCC2)CCN(S(=O)(=O)c2cc(Cl)sc2Cl)CC1`, the Potency was inconclusive [rising, single point].
In the case of `Cc1nnc(SCc2nnc(-c3cccs3)o2)n1Cc1ccccc1`, the Potency is reported as “inactive”.
With `FC(F)(F)c1nnc2c(Sc3ccccc3)nc3ccccc3n12` the Potency was inconclusive [cytotoxic, single point].
For `S=c1[nH]ncc2ccccc12`, the Potency was inconclusive [cytotoxic, single point].
In the case of `CCCCc1c(-c2ccccc2)ncn1CCc1ccccc1OC`, the Potency is reported as inconclusive [cytotoxic, single point].
For `O=C(C1=C(O)C(=O)N(c2nccs2)C1c1ccccc1)c1cc2ccccc2o1` (stereo unspecified), the Potency was inconclusive [cytotoxic, partial curve].
For `c1ccc(COc2cccc(-c3cc4nc(NCCCn5ccnc5)ccn4n3)c2)cc1`, the Potency was active: 16.4 µM.
For `CCOc1ccc(-c2nc(CSCC(=O)NCC3CCCO3)c(C)o2)cc1` (stereo unspecified), the Potency was “inactive”.
For `Cc1cc(C)nc(N2N=C(C(F)(F)F)CC2=O)n1`, the Potency was “inactive”.
In the case of `Cc1cc(C)c2nc(N3CCC(C(=O)N4CCCC4)CC3)sc2c1`, the Potency is reported as inconclusive [cytotoxic, single point].
In the case of `O=C1C=C(c2ccc(-c3ccccc3)c(F)c2)C[C@@H](c2ccc(Cl)cc2)C1`, the Potency is reported as “inactive”.
For `COc1cc(OC)cc(-c2nnc(SCC(=O)N(Cc3ccccc3)C(C)(C)C)o2)c1`, the Potency was inconclusive [cytotoxic, single point].
In the case of `CCc1ccc(S(=O)(=O)NCc2cn3ccsc3n2)s1`, the Potency is reported as “inactive”.
In the case of `CCOC(=S)N/C(=N\S(=O)(=O)c1ccc(C)cc1)c1ccccc1`, the Potency is reported as “inactive”.
In the case of `FC(F)(F)c1cccc(NC(=S)NC(c2ccccc2)c2ccccc2)c1`, the Potency is reported as inconclusive [cytotoxic, partial curve].
In the case of `CC1(Cc2ccc(OC(F)(F)F)cc2)C(=O)Nc2c(Cl)ccc(Cl)c21` (stereo unspecified), the activity, negative = less viability is reported as inconclusive: -76.3%.
For `COc1cccc(-c2nnn(CC(=O)N(C3CCCCC3)C3CCS(=O)(=O)C3)n2)c1` (stereo unspecified), the Potency was “inactive”.
In the case of `COc1cccc(C#Cc2c(C=O)n(C)c3ccccc23)c1`, the Potency is reported as “inactive”.
For `O=C(C[C@@H]1C/C=C\CCC(=O)OC[C@@H]2CCCN2C1=O)N[C@H](CO)Cc1ccccc1`, the Potency was “inactive”.
For `CCOC(=O)C(=NC(C)CC)NNc1ccc(Br)cc1` (stereo unspecified), the Potency was active: 16.4 µM.
In the case of `Cc1cc(NC(=O)c2cc3cccc([N+](=O)[O-])c3[nH]2)ccc1F`, the Potency is reported as inconclusive [cytotoxic, single point].
With `C/C(=N\Nc1nc(C(C)(C)C)cs1)c1ccc(O)cc1` the Potency was “inactive”.
For `CCCNC(=O)C1(C)CCCN(C(=O)c2ccc3snnc3c2)C1` (stereo unspecified), the Potency was inconclusive [rising, single point].
With `Cc1cc(N)n2ncc(-c3cccc(Br)c3)c2n1` the Potency was inconclusive [cytotoxic, single point].
For `COc1ccc(C)cc1NC(=O)CN1C(=O)c2cccc3cccc1c23`, the Potency was “inactive”.
In the case of `O=C(Nc1ccc(CN2CCS(=O)(=O)CC2)cc1)c1ccccc1`, the Potency is reported as “inactive”.
In the case of `CCOc1ccc(S(=O)(=O)Nc2cc(OC)ccc2OC)cc1`, the Potency is reported as active: 0.184 µM.
In the case of `COc1ccc(CCNC(=O)C2CCCN(S(=O)(=O)c3ccc(F)cc3)C2)cc1` (stereo unspecified), the Potency is reported as “inactive”.
With `CC1(C(=O)NS(=O)(=O)c2ccc(Cl)cc2)CCN1C(=O)Cc1ccccc1` (stereo unspecified) the Potency was inconclusive [rising, single point].
In the case of `O=C(COCc1cc(-c2ccc3c(c2)OCO3)on1)N1CCN(c2ccccc2)CC1`, the Potency is reported as “inactive”.
In the case of `O=C(CBr)N1CCc2ccccc2C(c2ccccc2)C1` (stereo unspecified), the Potency is reported as active: 25.9 µM.
In the case of `O=C(Nc1ccccc1)Nc1nnc(SCc2ccc(Cl)cc2)s1`, the Potency is reported as “inactive”.
For `COc1cc(CN2CCN(C(=O)c3cccc4ccccc34)CC2)cc(OC)c1O`, the Potency was inconclusive [cytotoxic, single point].
With `Nc1nc(N)c2cc(Sc3ccc4ccccc4c3)ccc2n1` the Potency was active: 8.2 µM.
With `CCc1cccc(C)c1NC(=S)NCC1CCN(c2ccc(OC)cc2)C1` (stereo unspecified) the Potency was inconclusive [cytotoxic, partial curve].
With `COc1cccc(C2=CC(c3cccs3)n3nnnc3N2)c1` (stereo unspecified) the Potency was active: 8.2 µM.
With `COc1ccc(/C=C/c2cc[n+](C(=O)Cc3ccccc3)cc2)cc1` the Potency was inconclusive [cytotoxic, single point].
With `N#C/C(=C/c1cn(-c2ccccc2)nc1-c1cccc(OCc2ccc(F)cc2)c1)C(=O)NCCCn1ccnc1` the Potency was active: 16.4 µM.
In the case of `CCOC(=O)C(=O)Nc1ccc(OCc2ccccc2)cc1`, the activity, negative = less viability is reported as inconclusive: 6.06%.
For `CCN(CC)CCN1C(=O)C(=O)/C(=C(/O)c2ccc(F)cc2)C1c1ccncc1` (stereo unspecified), the Potency was inconclusive [rising, partial curve, poor fit].
With `CN(C(=S)NC1CCCCC1)C1(c2ccccc2Cl)CCCCC1=O` (stereo unspecified) the Potency was inconclusive [cytotoxic, partial curve].
In the case of `COc1ccc(NC(=O)CN2CCOCC2)cc1S(=O)(=O)N1CCCCC1`, the Potency is reported as inconclusive [rising, full curve].
With `Cc1ccccc1N(C(=O)c1snc(C(N)=O)c1N)C(C(=O)NCc1ccccc1)c1ccc(O)cc1` (stereo unspecified) the Potency was inconclusive [cytotoxic, partial curve, poor fit].
With `CCOC(=O)C1=C(CSc2nc3ccccc3s2)NC(=O)NC1c1cccc([N+](=O)[O-])c1` (stereo unspecified) the Potency was inconclusive [cytotoxic, single point].
With `CC(=O)Nc1ccc(S(=O)(=O)N2CCN(CC(O)COc3ccc4ccccc4c3)CC2)cc1` (stereo unspecified) the Potency was active: 0.708 µM.
In the case of `CC1(C)NC(=O)N(CCCCOc2ccc3ccccc3c2Cl)C1=O`, the Potency is reported as inconclusive [cytotoxic, single point].
In the case of `O=C(NC1CCCC1)C(c1ccc(F)cc1)N(C(=O)c1csnn1)c1ccccc1` (stereo unspecified), the activity, negative = less viability is reported as inconclusive: -34.5% [cytotoxic].
For `COC(=O)c1sc(NC(=O)C2CCCCC2C(=O)O)c(C(=O)OC)c1C` (stereo unspecified), the Potency was “inactive”.
For `CCN(CC(=O)NCc1ccc(F)cc1)C(=O)/C=C/c1ccc(OC)c(S(=O)(=O)NC(C)C)c1`, the Potency was active: 4.11 µM.
With `CC(=O)N1N=C2/C(=C/c3ccccc3)CCCC2C1c1ccccc1` (stereo unspecified) the Potency was inconclusive [cytotoxic, partial curve, poor fit].
With `CC1Sc2ccc(S(=O)(=O)N3CCC(C(=O)Nc4ccc(Cl)cc4)CC3)cc2NC1=O` (stereo unspecified) the Potency was active: 20.6 µM.
With `COc1cc2c(cc1NC(=O)c1cncc(Br)c1)oc1ccccc12` the Potency was inconclusive [cytotoxic, single point].
In the case of `COc1ccccc1C1CCCN1Cc1nc(-c2ccc(C)s2)oc1C` (stereo unspecified), the Potency is reported as “inactive”.
With `CN1CCN(NC(=O)c2cc(-c3ccc(Br)s3)nc3ccccc23)CC1` the Potency was active: 20.6 µM.
With `NNC(=O)Cc1cccc2ccc(Cl)cc12` the Potency was “inactive”.
In the case of `COc1ccc(-c2csc(NCc3ccco3)n2)cc1`, the Potency is reported as “inactive”.
In the case of `CCOC(=O)c1cn(CC)c2ccc(S(=O)(=O)N3CC(C)CC(C)C3)cc2c1=O` (stereo unspecified), the activity, negative = less viability is reported as inconclusive: -1.66% [cytotoxic].
In the case of `CCc1cccc(CC)c1NC(=S)N(CCN(C)C)C(C)c1cccnc1` (stereo unspecified), the Potency is reported as “inactive”.
In the case of `CCC/C(=C1/c2ccccc2C(=O)N1c1ccccc1)c1ccc2c(c1)OCCO2`, the Potency is reported as inconclusive [cytotoxic, single point].
In the case of `O=C(CCc1ccccc1)N/N=C/c1cc(Br)ccc1O`, the Potency is reported as inconclusive [cytotoxic, single point].
In the case of `Cc1ccc(NC(=O)C(=O)Nc2ccc(C)cn2)nc1`, the Potency is reported as inconclusive [rising, partial curve].
For `CC1=NN(C(=O)c2ccco2)C(O)(c2ccccc2)C1` (stereo unspecified), the Potency was “inactive”.
In the case of `CCC1CCC2(CC1)NC(=O)N(CC(=O)Nc1cccc(S(=O)(=O)N(C)c3ccccc3)c1)C2=O` (stereo unspecified), the Potency is reported as inconclusive [cytotoxic, single point].
For `Cc1cnn(C(=S)NCc2ccc(Cl)cc2)c1`, the Potency was inconclusive [cytotoxic, single point].
In the case of `CC(C)(C)C(=O)Cn1nnc(-c2ccc(C(F)(F)F)cc2)n1`, the Potency is reported as “inactive”.
With `Cc1ccc(Nc2c(-c3ccccn3)nc3cccc(C)n23)cc1` the Potency was active: 11.6 µM.
For `CC1CCN(Cc2c(C(=O)N/N=C/c3ccc(C(F)(F)F)cc3)nnn2-c2nonc2N)CC1`, the Potency was inconclusive [cytotoxic, partial curve].
